PMC10368727, “Sequestration of histidine kinases by non-cognate response regulators establishes a threshold level of stimulation for bacterial two-component signaling” (Nature Communications, 2023)

Target: T1, response regulator NarL (M. tuberculosis, UniProt P9WGM5 1-216)
T1 construct: also called non-cognate RR NarL
T1 sequence: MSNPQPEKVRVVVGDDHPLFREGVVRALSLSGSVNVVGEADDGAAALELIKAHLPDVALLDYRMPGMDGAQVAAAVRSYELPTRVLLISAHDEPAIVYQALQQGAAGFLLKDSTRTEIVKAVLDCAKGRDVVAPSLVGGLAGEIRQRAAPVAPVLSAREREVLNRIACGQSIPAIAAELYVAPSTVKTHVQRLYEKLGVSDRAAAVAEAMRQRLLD
Assay: ITC
Details: both partners purified

B1: MtrB~P (phosphorylated MtrB, cytosolic catalytic domain) as used in ITC (domain or fragment)
chain: SRQVVVPVRSASRIAERFAEGHLSERMPVRGEDDMARLAVSFNDMAESLSRQIAQLEEFGNLQRRFTSDVSHELRTPLTTVRMAADLIYDHSADLDPTLRRSTELMVSELDRFETLLNDLLEISRHDAGVAELSVEAVDLRTTVNNALGNVGHLAEEAGIELLVDLPAEQVIAEVDARRVERILRNLIANAIDHAEHKPVRIRMAADEDTVAVTVRDYGVGLRPGEEKLVFSRFWRSDPSRVRRSGGTGLGLAISVEDARLHQGRLEAWGEPGEGACFRLTLPMVRGHKVTTSPLPMKPIPQPVLQPVAQPNPQPMPPEYKERQRPREHAEWSG
notes: also called phosphorylated HK MtrB
For B1, the “fold higher affinity than for MtrA” value was ~3 fold.
